Measured values: PubChem BioAssay AID1347428 (National Center for Advancing Translational Sciences (NCATS), 2020)
Among all 91,000 compounds or so, about 290 (0.32%) were called active. The inconclusive results got no clear call from the source; some entries with a clear call stand among them for comparison. Calls come from the whole dose curve; as a rule, active = well fitted inhibition curve with a large enough effect; inconclusive = small, poorly fitted or top-dose-only effect; inactive = no such curve, though single readings can be large or run the other way. Where the call is inconclusive, the potency comes from a doubtful curve fit.

biological target: Single-stranded DNA cytosine deaminase (Homo sapiens) (UniProt Q9GZX7); experiment: Primary qHTS assay for inhibitors of Activation Induced Cytidine Deaminase (AID): AID signal; conditions: AID deamination FRET fluorescence, UDG-coupled, 4 h; activity change, negative = inhibition: at 115 µM (top of the series); note: nearly all actives have a fitted effect of over 25% in size
Sequence of UniProt Q9GZX7 (Q9GZX7 whole entry, looked up): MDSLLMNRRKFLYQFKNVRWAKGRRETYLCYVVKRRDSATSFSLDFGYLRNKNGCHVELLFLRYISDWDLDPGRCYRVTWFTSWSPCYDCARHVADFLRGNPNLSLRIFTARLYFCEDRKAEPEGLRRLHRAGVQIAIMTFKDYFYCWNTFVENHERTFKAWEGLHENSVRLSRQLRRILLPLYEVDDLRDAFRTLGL
% is set by controls: 0 for no effect and ±100 for the full control effect; potency is the fitted concentration of half-maximal effect; tags give direction and shape of the fitted curve.

Structure (SMILES)	activity change, negative = inhibition	Potency
COc1cc(/C=C2\NC(=O)NC2=O)cc(Br)c1OCC(=O)O	inactive: 8.24%	–
Cc1nc2c(C(=O)NC(C)c3ccccc3)cnn2c(C)c1Cc1ccccc1 (configuration not stated)	–	inconclusive: 56.2 µM [inhibitor, partial curve, poor fit]
O=C(NCCc1csc(-c2ccc(F)cc2)n1)c1ccc(Br)o1	–	inconclusive: 89.1 µM [inhibitor, partial curve, poor fit]
COc1ccc(N2CC(NC(=O)c3ccc(S(=O)(=O)N4CCCCC4)cc3)CC2=O)cc1OC (configuration not stated)	–	inconclusive: 12.6 µM [inhibitor, partial curve, poor fit]
COc1cc(-c2nnc(SCCOc3ccc(C)c(Cl)c3)o2)cc(OC)c1OC	–	inconclusive: 8.91 µM [inhibitor, full curve, poor fit]
CC(=O)C1=C(O)C(=O)NC1c1ccccc1F (configuration not stated)	inactive: 2.85%	–
Cc1cc(C)c(Cn2c(C(O)c3ccccc3)nc3ccccc32)c(C)c1 (configuration not stated)	–	inconclusive: 15.8 µM [inhibitor, partial curve, poor fit]
N#C/C(=C\c1ccc(-c2cc(Cl)ccc2Cl)o1)C(=O)Nc1ccccc1C(=O)O	–	inconclusive: 56.2 µM [inhibitor, partial curve, poor fit]
CCCn1nc(C)cc1CN(C)c1ccc(NS(=O)(=O)CC)cc1C(=O)O	–	inconclusive: 28.2 µM [inhibitor, single point]
CC(C)COc1ccc(/C=C(\C#N)C(=O)Nc2ccccc2C(=O)O)cc1	–	inconclusive: 79.4 µM [inhibitor, partial curve, poor fit]
COc1ccc2cc(C(C)C(=O)NC3CCCCC3)ccc2c1 (configuration not stated)	inactive: 0.272%	–
CCN1CCN(CCCNC(=O)c2ccc3c(c2)sc2nc(-c4ccc(OC)cc4)cn23)CC1	–	inconclusive: 50.1 µM [inhibitor, partial curve, poor fit]
Cc1cccc(-n2nnnc2S(C)(=O)=O)c1	–	inconclusive: 31.6 µM [inhibitor, full curve, poor fit]
CCn1cc(C(=O)NCc2ccccc2)c(=O)c2cc(S(=O)(=O)N3CCCCCC3)ccc21	–	inconclusive: 39.8 µM [inhibitor, full curve, poor fit]
CC(=O)N1N=C(c2ccc(C)cc2)CC1c1cn(-c2ccccc2)nc1-c1cccs1 (configuration not stated)	inactive: -10.8%	–
COc1ccc(/C=C/c2nc(C#N)c(N3CCC(C)CC3)o2)cc1OC	–	inconclusive: 79.4 µM [inhibitor, single point]
Fc1ccc(-c2csc(NCc3ccco3)n2)cc1F	inactive: -9.14%	–
COc1ccc(Nc2ncc3c(n2)CCN(Cc2ccc(Br)s2)C3)c(OC)c1	inactive: -15%	–
CC(C)(C)c1ccc(CCC(=O)Nc2cccnc2)cc1	inactive: -4.74%	–
Cc1cccc(-c2nc(CSCC(=O)N3CCN(c4cccc(C)c4C)CC3)c(C)o2)c1	–	inconclusive: 25.1 µM [inhibitor, full curve, poor fit]
CSc1nc2c([nH]c3ccccc32)c(=O)n1-c1ccc(C)cc1	–	inconclusive: 39.8 µM [inhibitor, single point]

Structure (SMILES)	activity change, negative = inhibition	Potency
COc1ccc(CCNC(=O)CCCn2nc(C)c3sc4ccccc4c3c2=O)cc1OC	–	inconclusive: 31.6 µM [inhibitor, full curve]
CCOc1ccc(NS(=O)(=O)c2ccc3nc(-c4ccccc4)[nH]c3c2)cc1	inactive: 6.05%	–
CCOc1c(/C=N/O)cccc1OC	inactive: 1.37%	–
COc1cc(/C=C(\C#N)C(=O)Nc2nnc(C(F)(F)F)s2)ccc1OCc1ccc(C(F)(F)F)cc1C(F)(F)F	–	active: 50.1 µM
CC1(C(=O)Nc2ncc(Cc3ccc(Br)cc3)s2)Cc2ccccc2C(=O)O1 (configuration not stated)	–	inconclusive: 3.16 µM [inhibitor, full curve, poor fit]
CC(=O)c1c(C)[nH]c(C(=O)C(C)SCc2ccc(Cl)cc2)c1C (configuration not stated)	inactive: -4.65%	–
Cc1cc(C)c(NC(=O)CSc2ncc(S(=O)(=O)c3ccc(C(C)(C)C)cc3)c(=O)[nH]2)c(C)c1	–	inconclusive: 50.1 µM [inhibitor, partial curve, poor fit]
COc1ccccc1Nc1c2c(nc3ccc(NC(=O)c4cccc(F)c4)cc13)CCCC2	–	inconclusive: 35.5 µM [inhibitor, partial curve, poor fit]
CCc1ccc(CNC(=O)C2CCN(C(=O)N3CC(CC)Oc4ccc(C)cc43)CC2)cc1 (configuration not stated)	–	inconclusive: 50.1 µM [inhibitor, partial curve, poor fit]
Cc1ccc(Cl)cc1NC(=O)CSc1nc(C)c(C)c(C)c1C#N	–	inconclusive: 56.2 µM [inhibitor, partial curve, poor fit]
CCOc1ccc(NC(=O)CNS(=O)(=O)c2ccc(Br)s2)cc1	inactive: 19.5%	–
Cc1ccc(OCc2nc(-c3ccc(C(=O)NCCc4ccc(S(N)(=O)=O)cc4)cc3)oc2C)cc1	inactive: 2.02%	–
O=C(Nc1cccc(Cl)c1)C1CC2CCCC(C1)C2=O (configuration not stated)	inactive: 3.32%	–
CCn1c(SCc2ccccc2F)nc(=O)c2c(C(=O)OC)cc(C3CC3)nc21	–	inconclusive: 50.1 µM [inhibitor, partial curve, poor fit]
COC(=O)c1ccc(CNC(=O)c2ccc(C(C)C)cc2)cc1	inactive: -3.46%	–
CCN(Cc1ccccc1)C(=O)C1CCN(S(=O)(=O)c2c(C)noc2/C=C/c2ccc(C)cc2)CC1	–	inconclusive: 35.5 µM [inhibitor, partial curve, poor fit]
Cc1ccc(CCNC(=O)c2ccc(CSCc3ccccc3C)o2)cc1	–	inconclusive: 17.8 µM [inhibitor, full curve, poor fit]
COC(=O)c1ccccc1NC(=O)c1ccc(=O)n(Cc2cccc(C)c2)c1	–	inconclusive: 31.6 µM [inhibitor, full curve, poor fit]
Cc1ccc(CCNC(=O)CSCc2nc(-c3ccc(C)cc3)oc2C)cc1	–	inconclusive: 50.1 µM [inhibitor, partial curve, poor fit]
Cc1ccc(CNC(=O)c2nn(C)c3c2CSc2ccc(C)cc2-3)cc1	–	inconclusive: 22.4 µM [inhibitor, full curve, poor fit]
Cn1nc(C(=O)NCCc2ccc(Cl)cc2)c2c1-c1ccccc1SC2	–	inconclusive: 44.7 µM [inhibitor, full curve, poor fit]

Structure (SMILES)	activity change, negative = inhibition	Potency
Cc1nc2c(C(=O)NCCc3ccc(Cl)cc3)cnn2c(C)c1Cc1ccc(F)cc1	–	inconclusive: 39.8 µM [inhibitor, partial curve, poor fit]
CC(C)c1ccc(OCC(=O)NCC(c2ccc(Cl)cc2)N2CCOCC2)cc1 (configuration not stated)	–	inconclusive: 89.1 µM [inhibitor, single point]
COc1ccc(OC)c(CNC(=O)CSc2c3c(nc4cc(Cl)ccc24)CCCC3)c1	–	inconclusive: 79.4 µM [inhibitor, partial curve, poor fit]
COc1ccc(C(=O)/C(C#N)=C\c2cc(Br)c(O)c(OC)c2)cc1	–	inconclusive: 79.4 µM [inhibitor, partial curve, poor fit]
COc1ccc(Br)cc1CN(C)C(=O)c1cc(Cl)c2c(c1)OCCO2	–	inconclusive: 39.8 µM [inhibitor, partial curve, poor fit]
COc1ccccc1N1CCN(C(=O)CSc2nc3ccccc3nc2Cc2ccc(C)cc2)CC1	–	inconclusive: 50.1 µM [inhibitor, partial curve, poor fit]
CN(CC(=O)Nc1ccc(F)cc1)Cc1nc2ccccc2c(=O)[nH]1	inactive: -1.95%	–
CCS(=O)(=O)c1cccc(C(=O)Nc2ccc(-c3nc4ccccc4s3)c(O)c2)c1	inactive: -22.5%	–
CCc1ccc(CN(Cc2cn[nH]c2-c2ccc(OC)cc2)C(=O)Nc2ccc(Br)cc2)cc1	–	inconclusive: 8.91 µM [inhibitor, full curve, poor fit]
Cc1cc(S(=O)(=O)Nc2ccc(O)c(Sc3nc4ccccc4s3)c2)ccc1Cl	inactive: -16.2%	–
Cc1ccc(CNC(=O)c2cccc(-c3cnc4ccccc4c3)c2)cc1	inactive: -16.3%	–
COc1ccc(OC)c(NC(=O)Cn2c(=O)cc(C)c3c(C)nn(-c4cccc(Cl)c4C)c32)c1	–	inconclusive: 89.1 µM [inhibitor, partial curve, poor fit]
Cc1ccc(CNC(=O)C2CCCN(c3ncnc4onc(-c5ccc(F)cc5)c34)C2)cc1 (configuration not stated)	–	inconclusive: 39.8 µM [inhibitor, partial curve, poor fit]
Cc1ccc(S(=O)(=O)c2nnn3c2nc(N2CCOCC2)c2sccc23)cc1C	–	inconclusive: 15.8 µM [inhibitor, full curve, poor fit]
COc1ccc(C(=O)Nc2nc3n(n2)C(c2ccc(Cl)cc2)C=C(c2ccccc2)N3)cc1OC (configuration not stated)	–	inconclusive: 31.6 µM [inhibitor, partial curve, poor fit]
CC(Sc1nc(=O)cc(N)n1CCc1ccccc1)C(=O)Nc1cccc(Cl)c1 (configuration not stated)	–	inconclusive: 89.1 µM [inhibitor, partial curve, poor fit]
Cc1ccc(-n2ncc(C(=O)NC3CCN(Cc4ccccc4)CC3)c2C2CCN(C(=O)OC(C)(C)C)CC2)cc1C	–	inconclusive: 20 µM [inhibitor, full curve]
CN(Cc1cnn(C)c1)C(=O)c1nn(-c2ccccc2)c(=O)c2ccccc12	inactive: -3.01%	–
Cc1ccc(CSC2=Nc3ccccc3C3=NC(CC(=O)NCc4ccc5c(c4)OCO5)C(=O)N23)cc1 (configuration not stated)	–	inconclusive: 20 µM [inhibitor, full curve, poor fit]
COc1ccc(-c2cc(C(=O)N3CCN(c4ccccc4)CC3)no2)cc1	–	inconclusive: 56.2 µM [inhibitor, partial curve, poor fit]
